Test results: PubChem BioAssay AID1030 (National Center for Advancing Translational Sciences (NCATS), 2008)
Out of some 220,000 compounds screened, about 16,000 (7.3%) were called active. The inconclusive results got no clear call from the source; some entries with a clear call stand among them for comparison. Calls follow the shape of the dose curve; as a rule, active = well fitted inhibition curve with a large enough effect (not every such curve was filed as active); inconclusive = small, poorly fitted or top-dose-only effect, or another doubt; inactive = no such curve, though single readings can be large or run the other way. Where the call is inconclusive, the potency comes from a doubtful curve fit.

Biological target: Aldehyde dehydrogenase 1A1 (Homo sapiens) (UniProt P00352)
Chain of UniProt P00352 (P00352 whole entry, looked up): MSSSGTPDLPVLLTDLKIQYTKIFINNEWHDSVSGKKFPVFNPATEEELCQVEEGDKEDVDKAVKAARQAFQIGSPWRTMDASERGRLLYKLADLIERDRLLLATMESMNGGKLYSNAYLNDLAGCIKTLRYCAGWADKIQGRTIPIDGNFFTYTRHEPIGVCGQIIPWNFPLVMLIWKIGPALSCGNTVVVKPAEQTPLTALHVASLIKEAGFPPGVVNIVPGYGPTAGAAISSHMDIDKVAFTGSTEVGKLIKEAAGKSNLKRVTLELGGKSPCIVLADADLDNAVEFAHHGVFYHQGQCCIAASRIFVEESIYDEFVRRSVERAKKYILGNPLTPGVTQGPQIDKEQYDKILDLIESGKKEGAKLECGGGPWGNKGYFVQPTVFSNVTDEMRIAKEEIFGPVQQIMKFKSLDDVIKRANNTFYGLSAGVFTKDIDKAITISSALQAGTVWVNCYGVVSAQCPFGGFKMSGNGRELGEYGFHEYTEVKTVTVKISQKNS
Assay: qHTS Assay for Inhibitors of Aldehyde Dehydrogenase 1 (ALDH1A1);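 as to activity, negative = inhibition: plate controls were no enzyme wells and a reference inhibitor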
Settings: Purified ALDH1A1, NADH fluorescence, propionaldehyde substrate; series mostly up to 75.3 µM; activity, negative = inhibition: at the top concentration
Potency is read from the fitted curve at half-maximal effect; tags tell the direction and shape of the fitted curve.

Potency, inconclusive:
CCOC(=O)c1cnc(N(C)C)nc1SC(=N)N 6.31 µM [inhibitor, single point], O=C(CCS(=O)(=O)c1ccc(Br)cc1)Nc1ccccn1 39.8 µM [inhibitor, single point], CCn1c(SCc2nc(-c3ccccc3)no2)nnc1-c1ccco1 39.8 µM [inhibitor, single point], COC(=O)CCCCCN1C(=O)NC(c2ccccc2)C(C(=O)OCc2ccccc2)=C1C (stereo not given) 39.8 µM [inhibitor, single point], O=C(C1CCCCC1)N1CCN(C(=O)C2CCCCC2)CC1 22.4 µM [inhibitor, partial curve], CCNC(=O)N(C(=O)NCC)n1c(C)nnc1C 39.8 µM [inhibitor, single point], CN(C)c1ccc(-c2nc(N(C)Cc3ccco3)c3ccccc3n2)cc1 22.4 µM [inhibitor, partial curve], CN1CCN(c2ccc([N+](=O)[O-])cc2C(=O)c2ccccc2)CC1 35.5 µM [inhibitor, single point], Nc1nnc(-c2ccco2)s1 31.6 µM [inhibitor, single point], CC(C)n1nc(C(=O)Nc2nnc(SCc3c(Cl)cccc3Cl)s2)c2ccccc2c1=O 28.2 µM [inhibitor, single point], Cn1c(=O)c2c(nc(Br)n2CC(=O)c2cccs2)n(C)c1=O 39.8 µM [inhibitor, single point], N#Cc1nc(-c2ccccc2)oc1NCCN1CCCCC1 31.6 µM [inhibitor, partial curve], Nc1ccc(-c2ccc(C(=O)O)s2)cn1 17.8 µM [inhibitor, partial curve], Cc1ccc(C)c(NS(=O)(=O)c2cc(C(=O)NCCC3=CCCCC3)ccc2C)c1 25.1 µM [inhibitor, partial curve], COC(=O)c1ccc2c(=O)n(NC(C)=O)c(=S)[nH]c2c1 39.8 µM [inhibitor, single point], COc1ccc(-c2nnc(CSc3nc4ccccc4c(=O)n3CC(C)C)o2)cc1OC 39.8 µM [inhibitor, single point], Cn1c(=O)[nH]c(=O)c2c1nc(N1CCCCCC1)n2CCSc1nc2ccccc2[nH]1 12.6 µM [inhibitor, partial curve], CSc1c(C#N)sc(=S)n1-c1ccc(C)cc1 28.2 µM [inhibitor, partial curve], COc1ccc2[nH]c(=O)c(CN(Cc3nnnn3Cc3ccccc3)CC3CCCO3)cc2c1 (stereo not given) 28.2 µM [inhibitor, single point], Clc1ccc(CN2CCN(c3ncnc4scc(-c5cccs5)c34)CC2)cc1 39.8 µM [inhibitor, single point], COc1ccc(OC)c(NC(=O)c2cc3c(Cl)nc4ccccc4c3s2)c1 25.1 µM [inhibitor, single point], CCCCCCc1cc2cc(-c3nnc(-c4ccccc4OC)o3)c(=O)oc2cc1O 3.16 µM [inhibitor, partial curve], CC1Cc2ccccc2N1C(=O)CSC1=NCCS1 (stereo not given) 39.8 µM [inhibitor, single point], C/C(=N\NS(=O)(=O)c1ccc(Cl)c([N+](=O)[O-])c1)c1ccc(C)o1 39.8 µM [inhibitor, single point], N#Cc1cc2c(ccc3ccccc32)oc1=O 15.8 µM [inhibitor, partial curve, poor fit], CC(=O)Nc1ccc(NC(=O)C23CC4CC(C2)CC(n2cnc(Br)n2)(C4)C3)cc1 28.2 µM [inhibitor, partial curve], O=S(=O)(N/N=C/c1ccc(Cl)cc1)c1ccc(Cc2ncc(C(F)(F)F)cc2Cl)s1 39.8 µM [inhibitor, single point], O=C(CSc1nc2c(sc3ccccc32)c(=O)n1CCO)NCc1ccco1 35.5 µM [inhibitor, single point], CCc1c(C)sc(NC(=O)Cn2nc(C(F)(F)F)c3c2CCCC3)c1C#N 39.8 µM [inhibitor, single point], CS/C(=C\[N+](=O)[O-])Nc1ccc(Cl)cc1 39.8 µM [inhibitor, single point]

Potency, active:
O=C1CSC(c2cccc(F)c2)N1c1ccccc1F (stereo not given) 14.1 µM, Nc1nc(-c2cccc(NS(=O)(=O)c3ccccc3)c2)cs1 7.94 µM, CN(C(=S)Nc1ccc(Oc2ccccc2)cc1)c1ccc(O)cc1 2.24 µM, CCNc1c([N+](=O)[O-])c(=O)oc2ccccc12 17.8 µM

activity, negative = inhibition, inactive:
CCOC(=O)Cn1c(S(=O)(=O)Cc2ccccc2Cl)nc(-c2ccccc2)c1-c1ccccc1 4.16%, CCOC(=O)c1c(C)n(-c2ccc(C)cc2)c2ccc(O)c(CN(C)C)c12 8.76%, Cn1ccnc1C[C@@](C)(O)c1ccccc1 13.4% [at 13.5 µM], CN(C)/C=N/c1sc2c(c1C#N)CC(C)(C)NC2(C)C 7.27%, CCN(c1ccccc1)S(=O)(=O)c1cc(C(=O)Nc2ccccc2Cl)ccc1F 3.4%, COCCOC(=O)c1c(C)n(C)c2ccc(OC(=O)c3ccco3)cc12 -1.63%, Cc1c(NC(=S)N/N=C/C=C/c2ccc([N+](=O)[O-])cc2)c(=O)n(-c2ccccc2)n1C -10.7%, O=C(N/N=C/c1cccc(OCc2ccccc2)c1)c1cccs1 -5.45%, CCN(CCCNC(=O)COc1cc(=O)n(C)c2ccccc12)c1ccccc1 -4.7%, O=C(/C=C\c1ccco1)Nc1ccc(N2CCN(C(=O)c3ccccc3)CC2)cc1 -7.87%, O=C(NCc1ccc(Cl)cc1)c1cccnc1 4.54%
